In PubChem BioAssay AID360 (National Center for Advancing Translational Sciences (NCATS), 2006):
Among all 48,000 compounds or so, about 550 (1.1%) were called active. Roughly 4% stayed inconclusive and do not appear here. Cut-off read from the data, not from the text of the source: active = potency below about 15 µM; inconclusive = mostly about 16 µM to 33 µM; inactive = weaker than that. The list shows a part of the results.

biological target: Lysosomal acid glucosylceramidase (Homo sapiens) (UniProt P04062); experiment: Glucocerebrosidase; details: purified enzyme, resorufin glucoside fluorescence (screen aimed at inhibitors), 20 min;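 note: the screen sought inhibitors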
Summary of the method: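 Wild-type enzyme at 0.2 nM final in 50mM citric acid/KH2PO4, 10mM sodium taurocholate, 0.01% tween-20, pH 5.9, with resorufin beta-D-glucopyranoside at 30 uM final. Compounds titrated, 20 min at RT, red fluorescence read; AC50 from titration.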
Potency is the fitted concentration of half-maximal effect.

Chain of UniProt P04062 (P04062 whole entry, looked up): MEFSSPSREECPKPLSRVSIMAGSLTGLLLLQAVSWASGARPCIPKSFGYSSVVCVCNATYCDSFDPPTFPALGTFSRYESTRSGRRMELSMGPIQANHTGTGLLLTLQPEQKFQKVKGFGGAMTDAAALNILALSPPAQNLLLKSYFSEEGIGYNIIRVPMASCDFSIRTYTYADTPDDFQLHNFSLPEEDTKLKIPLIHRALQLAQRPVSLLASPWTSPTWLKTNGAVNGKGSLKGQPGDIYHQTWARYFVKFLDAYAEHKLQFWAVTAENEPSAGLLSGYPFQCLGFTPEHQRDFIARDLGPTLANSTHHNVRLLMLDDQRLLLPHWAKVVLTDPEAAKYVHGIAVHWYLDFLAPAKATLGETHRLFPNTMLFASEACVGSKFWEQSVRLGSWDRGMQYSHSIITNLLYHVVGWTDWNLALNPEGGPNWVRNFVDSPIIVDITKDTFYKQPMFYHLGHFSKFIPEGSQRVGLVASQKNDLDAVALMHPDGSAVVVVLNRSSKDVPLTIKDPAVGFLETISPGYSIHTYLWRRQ

Potency, inactive:
O=C(Cc1ccccc1)Nc1c2c(nn1-c1cccc(Cl)c1)CS(=O)(=O)C2 > 76.9 µM, CC(=O)N1CCc2cc(S(=O)(=O)CCC(=O)N3CCN(C(=O)c4ccco4)CC3)ccc21 > 76.9 µM, CCC(C)NC(=O)C1c2cc(OC)c(OC)cc2C(=O)N(C)C1c1ccc(OC)cc1 (stereo unspecified) > 76.9 µM, CCn1nccc1C(=O)Nc1nccs1 > 76.9 µM, CCOC(=O)N1CCN(C(=O)C(NS(=O)(=O)c2cccc3nsnc23)c2ccccc2)CC1 (stereo unspecified) > 76.9 µM, Cn1c(SCC(=O)N2CCN(c3cccc(Cl)c3)CC2)nnc1-c1ccncc1 > 76.9 µM, Clc1ccc(Cc2noc(-c3cccs3)n2)cc1 > 76.9 µM, Cc1cc(C)cc(OCCCC(=O)O)c1 > 76.9 µM, Cc1occc1-c1nnc(SCC(=O)Nc2nccs2)n1Cc1ccco1 > 76.9 µM, COc1ccc(OC)c(S(=O)(=O)n2cccn2)c1 > 76.9 µM, COc1ccc(CN(Cc2ccccn2)C(=O)CN2C(=O)COc3ccccc32)cc1 > 76.9 µM, COc1ccc(S(=O)(=O)N(C(C)=O)c2ccc3oc(=O)sc3c2)cc1 > 76.9 µM, O=C(CN1C2CCC1CC(NC(=O)Nc1ccccc1)C2)NCc1ccco1 (stereo unspecified) > 76.9 µM, CCN(CC)S(=O)(=O)c1cccc(C(=O)Nc2cc(C)nn2-c2nc(C)cc(C)n2)c1 > 76.9 µM, CC(C)c1ccc(NC(=O)N2CCC(c3nc4ccccc4o3)CC2)cc1 > 76.9 µM, Cc1c(C(=O)N2CCN(c3ccccc3F)CC2)sc2nc(-c3ccccc3)cn12 > 76.9 µM, COc1cc(OC)cc(C2C(C#N)=C(N)Oc3n[nH]c(-c4cccnc4)c32)c1 (stereo unspecified) > 76.9 µM, CCOC(=O)N1CCC(NC(=O)C(Cc2ccccc2)NC(=O)c2ccco2)CC1 (stereo unspecified) > 76.9 µM, O=C(Nc1ccc2nc(-c3ccco3)[nH]c2c1)c1ccco1 > 76.9 µM, Cc1cc(C(=O)N2CCN(C/C=C/c3ccccc3)CC2)no1 > 76.9 µM, Clc1ccc(OCc2cn3cccnc3n2)c2ncccc12 > 76.9 µM, COc1cccc(NC(=O)Cc2nnc(SCCOc3ccccc3)n2C)c1 > 76.9 µM, CCN1CCN(c2nc3c(c(=O)n(C)c(=O)n3C)n2CCSc2ncccn2)CC1 > 76.9 µM, Cc1cccc(-c2nnc(N)s2)c1 > 76.9 µM, O=C(O)C1C2C=CC(C2)C1C(=O)N1CCN(CCO)CC1 (stereo unspecified) > 76.9 µM, N=c1ccccn1CC(O)COc1ccccc1 (stereo unspecified) > 76.9 µM, COCCCn1c(SCC(=O)N(C)C)nnc1-c1ccccc1 > 76.9 µM, CC(=O)Oc1ccc(/C=c2\sc3ncnn3c2=O)cc1 > 76.9 µM, COc1cccc(Nc2cc(C)nc3ccccc23)c1 > 76.9 µM, Cn1nnnc1SCC(=O)Nc1ccccc1Cc1ccccc1 > 76.9 µM, CCS(=O)(=O)N1CCC(NC(=O)C2CCCCC2)CC1 > 76.9 µM, CCOC(=O)CSC1=NC(=O)CS1 > 76.9 µM, CCOc1ccc(C(=O)c2ccncc2)cc1 > 76.9 µM, O=C1C2C3C=CC(C3)C2C(=O)N1c1n[nH]c(CCc2ccccc2)n1 (stereo unspecified) > 76.9 µM, Cc1ccnc(NS(=O)(=O)c2ccc(NC(=O)C3CCCCC3)cc2)n1 > 76.9 µM, CCc1cc(C(=O)OC)c(N2C(=O)C3C4C=CC(C4)C3C2=O)s1 (stereo unspecified) > 76.9 µM, CCOC(=O)c1c(C)c(C(=O)NCc2ccccc2OC)c(C)n1C > 76.9 µM, Cc1cc(C)cc(NC(=O)C2CCCN(c3nc(C)cc(C)n3)C2)c1 (stereo unspecified) > 76.9 µM, COc1cc(CN2CCC(C(=O)NC3CCCC3)CC2)cc(Br)c1O > 76.9 µM, Cc1nnc(SCC(=O)N2CC(=O)Nc3ccccc32)n1-c1ccccc1 > 76.9 µM, CCC1CCCN1Cn1cnc2c([nH]c3ccccc32)c1=O (stereo unspecified) > 76.9 µM, CCCN(CCC)CCNC(=O)C(NS(=O)(=O)c1ccc2c(c1)CCC(=O)N2)c1ccccc1 (stereo unspecified) > 76.9 µM, CCOC(=O)c1ccc(N2C(=O)CC(SCC(N)C(=O)OCC)C2=O)cc1 (stereo unspecified) > 76.9 µM, CCOC(=O)C1CCN(c2c(NCCCN(CC)c3ccccc3)c(=O)c2=O)CC1 > 76.9 µM, CN(c1cccc(NC(=O)c2ccccc2N(C)S(C)(=O)=O)c1)S(C)(=O)=O > 76.9 µM, COc1ccc(OC)c(-n2cnc3cc(C(=O)O)ccc32)c1 > 76.9 µM, Cc1[nH]nc(N=CC2=C(O)CC(C)(C)CC2=O)c1-c1ccccc1 > 76.9 µM, CCCCc1nc(SCC(=O)Nc2ccc(S(N)(=O)=O)cc2)n[nH]1 > 76.9 µM, O=C(Nc1ccc2c(c1)OCO2)C1CCN(S(=O)(=O)c2cccc3cccnc23)CC1 > 76.9 µM, C=CCOc1cccc(C2/C(=C(/O)c3ccc(Cl)cc3)C(=O)C(=O)N2CCN2CCOCC2)c1 (stereo unspecified), Cn1c(=O)c2c(nc(CN3CCN(C(=O)c4ccco4)CC3)n2Cc2ccc(Cl)cc2)n(C)c1=O > 76.9 µM, CCOC(=O)c1sc(N(Cc2ccccc2)C(=O)CN2C(=O)CN(C)C2=O)nc1C > 76.9 µM, CC1CN(S(=O)(=O)c2ccc(NC(=O)c3ccco3)cc2)CC(C)O1 (stereo unspecified) > 76.9 µM, CCN1CCN(Cc2ccccc2NC(=O)Nc2ccc(C)cc2)CC1 > 76.9 µM, O=C(NCC1COCCO1)C1CCN(S(=O)(=O)c2ccccc2)CC1 (stereo unspecified) > 76.9 µM, Cc1ccn2cc(CCNC(=O)CC(C)(C)C)nc2c1 > 76.9 µM, CC(NC(=O)Cc1ccc(F)cc1)C(c1cccs1)N1CCN(C)CC1 (stereo unspecified) > 76.9 µM, O=C(c1cn(-c2ccccc2)nc1-c1ccc(Cl)s1)N1CCOCC1 > 76.9 µM, O=C(NCc1ccco1)c1cnn2c(C(F)(F)F)cc(-c3cccs3)nc12 > 76.9 µM, COC(=O)CCCCC1SCC(NC(=O)OC)C1NC(=O)OC (stereo unspecified) > 76.9 µM, Nc1nnn(Cc2ccccc2)n1 > 76.9 µM, CC1CN(c2nc3ccccc3nc2C(C#N)C(=O)OC2CCCCC2)CC(C)O1 (stereo unspecified) > 76.9 µM, CC1CCCC(C)N1C(=O)CSc1nnc(NC(=O)Cc2cccs2)s1 (stereo unspecified) > 76.9 µM, Cc1cc2ccccn2c1C(=O)c1ccncc1 > 76.9 µM, O=C(COC(=O)Cn1cnc2ccccc21)Nc1ccc2c(c1)OCCO2 > 76.9 µM, CC1CCCN(c2nc3c(c(=O)n(C)c(=O)n3C)n2Cc2ccccc2)C1 (stereo unspecified) > 76.9 µM, O=C(Oc1ccccc1)c1ccc2nccnc2c1 > 76.9 µM, NC(=O)C1CCN(CC(=O)c2c[nH]c3ccc(F)cc23)CC1 > 76.9 µM, CC1CC(C)CN(CC(=O)N2CCc3[nH]c4ccccc4c3C2)C1 (stereo unspecified) > 76.9 µM, Cc1cc(C)c(NC(=O)CSc2nnc(Cc3cccn3C)n2-c2ccc(F)cc2)c(C)c1 > 76.9 µM, O=C(Nc1cccc2ccccc12)c1cnccn1 > 76.9 µM, CC(=O)Nc1nc(C)nc(-c2ccccc2OC(C)=O)n1 > 76.9 µM, CCCC(=O)NCc1nc2ccccc2n1C > 76.9 µM, Cc1cc(=O)[nH]c(SCC(=O)C23CC4CC(CC(C4)C2)C3)c1C#N > 76.9 µM, Cc1cccc(-n2c(Cc3cc(=O)[nH]c(=O)[nH]3)nnc2SCC(=O)NCc2ccco2)c1 > 76.9 µM, CCn1c(C)nc2cc(S(=O)(=O)N3CCCCC3)ccc21 > 76.9 µM, COc1ccc(-n2cnc3c(sc4nccc(N(C)C)c43)c2=O)cc1 > 76.9 µM, CCCCOC(=O)CN1C(=O)c2ccc(C(=O)OCCCC)cc2C1=O > 76.9 µM, CC1(C)CC(=O)C2=C(C1)NC(=O)CC2c1cc2c(cc1Br)OCO2 (stereo unspecified) > 76.9 µM, O=C(Cc1cccs1)Nc1nc(-c2ccccc2)cs1 > 76.9 µM, CCOc1ccc(-n2ccnc2SCC(=O)Nc2nnc(CC)s2)cc1, CCc1cc2c(=O)[nH]cnc2s1 > 76.9 µM, CSc1ccccc1NC(=O)CN(Cc1ccccc1)S(C)(=O)=O > 76.9 µM, COc1ccccc1Nc1nc(N)nc(CN(C)C2CCCCC2)n1 > 76.9 µM, Cc1cc(C(=O)OCC(=O)Nc2cc(C)on2)c2ccccc2n1 > 76.9 µM, COc1ccc(-c2nc3c(n2O)CCCC3=O)cc1OC > 76.9 µM, CC(C)C1CC(O)(C2(O)CCCCC2)ON1 (stereo unspecified) > 76.9 µM, Cc1cc(NC(=O)C2CC(=O)OC2c2ccccc2)no1 (stereo unspecified) > 76.9 µM, Cc1cc(C(=O)COC(=O)Cn2c(C(F)(F)F)nc3ccccc32)c(C)n1Cc1ccco1 > 76.9 µM, CCn1c(=O)cc(SCC(=O)Nc2ccccc2N2CCN(C)CC2)c2ccccc21 > 76.9 µM, Cc1c(NC(=O)COc2ncnc3c(Cl)cc(Cl)cc23)c(=O)n(-c2ccccc2)n1C > 76.9 µM
